No constants are given. Whether binding was seen depends on the method and setting. Binding seen in cells or lysates may run through a third protein. Some entries that bind do so weakly or less than the wild type. Sequences can lack the tags named with a protein.

Chains of the proteins cited; added tags and fusions are not shown. Lines headed by an entry give the natural chain unless they say otherwise; changes in a name come on top.
UniProt P17383: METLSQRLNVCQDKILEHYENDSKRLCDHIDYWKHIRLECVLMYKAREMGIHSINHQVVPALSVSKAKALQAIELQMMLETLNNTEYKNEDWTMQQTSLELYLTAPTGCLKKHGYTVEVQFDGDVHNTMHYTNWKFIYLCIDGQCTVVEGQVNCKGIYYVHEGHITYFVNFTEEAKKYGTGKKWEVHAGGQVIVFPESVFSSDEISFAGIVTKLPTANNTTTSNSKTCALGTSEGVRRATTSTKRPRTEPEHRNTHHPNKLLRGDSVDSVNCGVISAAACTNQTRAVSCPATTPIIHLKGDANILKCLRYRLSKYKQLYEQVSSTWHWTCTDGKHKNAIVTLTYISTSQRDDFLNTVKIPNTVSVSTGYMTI

Assay [1] deals with T1, FLAG-SMC6 (UniProt Q96SB8).
T1 sequence: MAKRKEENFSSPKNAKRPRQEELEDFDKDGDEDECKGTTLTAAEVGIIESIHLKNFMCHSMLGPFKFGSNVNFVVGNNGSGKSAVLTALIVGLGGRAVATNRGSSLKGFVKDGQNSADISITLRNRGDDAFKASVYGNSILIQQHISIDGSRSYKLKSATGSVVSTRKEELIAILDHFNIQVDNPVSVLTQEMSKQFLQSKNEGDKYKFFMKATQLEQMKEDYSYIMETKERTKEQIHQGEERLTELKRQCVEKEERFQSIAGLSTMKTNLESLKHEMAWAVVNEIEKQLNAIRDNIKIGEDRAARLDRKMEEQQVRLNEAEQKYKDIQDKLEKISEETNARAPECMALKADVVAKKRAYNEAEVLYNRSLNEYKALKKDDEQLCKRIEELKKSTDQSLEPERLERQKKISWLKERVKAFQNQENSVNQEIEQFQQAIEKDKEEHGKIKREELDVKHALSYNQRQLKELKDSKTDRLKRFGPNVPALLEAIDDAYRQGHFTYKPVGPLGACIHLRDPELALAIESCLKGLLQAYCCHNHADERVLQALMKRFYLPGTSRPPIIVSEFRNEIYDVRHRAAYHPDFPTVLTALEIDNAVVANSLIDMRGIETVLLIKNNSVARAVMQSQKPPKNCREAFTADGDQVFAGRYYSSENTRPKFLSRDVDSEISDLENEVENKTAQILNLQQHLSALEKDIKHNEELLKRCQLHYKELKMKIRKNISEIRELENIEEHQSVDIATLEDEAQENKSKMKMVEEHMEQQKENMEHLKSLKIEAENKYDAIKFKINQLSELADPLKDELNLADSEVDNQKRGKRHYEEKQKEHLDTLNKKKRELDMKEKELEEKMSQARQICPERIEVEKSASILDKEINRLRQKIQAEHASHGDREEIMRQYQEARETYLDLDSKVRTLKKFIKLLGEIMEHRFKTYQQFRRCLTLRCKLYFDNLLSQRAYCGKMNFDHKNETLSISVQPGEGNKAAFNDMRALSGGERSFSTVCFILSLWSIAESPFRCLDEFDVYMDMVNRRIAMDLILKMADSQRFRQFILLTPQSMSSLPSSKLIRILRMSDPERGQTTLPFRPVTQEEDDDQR
Put plainly: co-IP; HEK293TT cells transfected with FLAG-SMC6, full-length FLAG-E2 or truncated FLAG-E2; 48 h; NP-40 lysis buffer, benzonase; IP with rabbit anti-SMC6 or rabbit IgG.

For assay [2], the target named is T2, endogenous SMC6 (human (endogenous in HEK293TT)) (UniProt Q96SB8).
T2 sequence: T1 sequence
Put plainly: co-IP; HEK293TT cells transfected with FLAG-SMC6, HPV-31 FLAG-E2 and HPV-31 HA-E1 alone or in combination; 48 h; NP-40 lysis buffer, benzonase; IP with rabbit anti-SMC6 or rabbit IgG.

Assay [3] addresses T1, FLAG-SMC6. Described as above.
Assay [4] deals with T1, FLAG-SMC6. Put plainly: co-IP; HEK293 cells transfected with FLAG-SMC6, HPV-31 V5-E2 or both; 48 h; lysis in 0.5% NP-40/150 mM NaCl/50 mM Tris-HCl pH 8/10% glycerol, benzonase; IP with M2 anti-FLAG agarose overnight at 4 °C; washes alternating 0.5 M and 150 mM salt.
Assay [5] addresses T3, HPV-31 HA-E1 (HPV-31) (UniProt P17382).
T3 sequence: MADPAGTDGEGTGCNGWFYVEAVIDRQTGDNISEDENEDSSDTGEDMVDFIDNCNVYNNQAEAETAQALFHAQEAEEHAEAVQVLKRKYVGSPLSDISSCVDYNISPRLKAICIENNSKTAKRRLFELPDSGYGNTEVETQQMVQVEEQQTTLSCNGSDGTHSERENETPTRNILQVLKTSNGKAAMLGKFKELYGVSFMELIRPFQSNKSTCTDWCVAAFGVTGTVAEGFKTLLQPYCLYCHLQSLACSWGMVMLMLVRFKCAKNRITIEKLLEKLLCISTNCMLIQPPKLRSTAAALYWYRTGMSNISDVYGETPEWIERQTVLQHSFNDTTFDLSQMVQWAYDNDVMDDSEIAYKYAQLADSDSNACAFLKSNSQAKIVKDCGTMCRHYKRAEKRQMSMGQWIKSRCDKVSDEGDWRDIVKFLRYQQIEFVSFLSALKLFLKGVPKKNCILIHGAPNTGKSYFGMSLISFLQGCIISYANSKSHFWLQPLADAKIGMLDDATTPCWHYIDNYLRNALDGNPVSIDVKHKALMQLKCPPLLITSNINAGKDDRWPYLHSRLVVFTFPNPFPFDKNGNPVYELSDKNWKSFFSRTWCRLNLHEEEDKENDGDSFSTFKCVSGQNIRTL
Put plainly: co-IP; HEK293TT cells transfected with FLAG-SMC6, HPV-31 V5-E2 and HPV-31 HA-E1; 48 h; NP-40 lysis buffer, benzonase; IP with rat anti-HPV-31 E1.

Assay [6] has as its target HPV-31 V5-E2 (HPV-31) (UniProt P17383). Put plainly: co-IP; HEK293TT cells transfected with FLAG-SMC6 and HPV-31 V5-E2; 48 h; NP-40 lysis buffer, benzonase; IP with rabbit anti-V5 on protein A/G sepharose.
Assay [7] has as its target full-length HPV-31 FLAG-E2 (HPV-31) (UniProt P17383). Put plainly: co-IP; HEK293TT cells transfected with FLAG-SMC6, HPV-31 FLAG-E2 and HPV-31 HA-E1 alone or in combination; 48 h; NP-40 lysis buffer, benzonase; IP with rabbit anti-SMC6 or rabbit IgG.

“HPV-31 FLAG-E2^mt (residues 205-372) (from UniProt P17383 205-372) (domain or fragment)”: the binding result in assay [1] was “no binding”.
On to “full-length HPV-31 FLAG-E2 (from UniProt P17383 1-372)”, for which the binding result in assay [1], in assay [2] and in assay [3] was “binds” in each case.
For the molecule “HPV-31 V5-E2 (from UniProt P17383 1-372)”, the binding entry in assay [4] and in assay [5] was “binds” in each case.

B1: NSE3 (protein, UniProt Q96MG7 1-304)
chain: MLQKPRNRGRSGGQAERDRDWSHSGNPGASRAGEDARVLRDGFAEEAPSTSRGPGGSQGSQGPSPQGARRAQAAPAVGPRSQKQLELKVSELVQFLLIKDQKKIPIKRADILKHVIGDYKDIFPDLFKRAAERLQYVFGYKLVELEPKSNTYILINTLEPVEEDAEMRGDQGTPTTGLLMIVLGLIFMKGNTIKETEAWDFLRRLGVYPTKKHLIFGDPKKLITEDFVRQRYLEYRRIPHTDPVDYEFQWGPRTNLETSKMKVLKFVAKVHNQDPKDWPAQYCEALADEENRARPQPSGPAPSS
In the case of B1, the binding entry in assay [4] was “binds”; in assay [1] it was “binds”; in assay [6] it was “no binding”; in assay [2] it was “binds”; in assay [5], “no binding”.

B2: HPV-31 HA-E1 (protein, UniProt P17382 1-629)
chain: T3 sequence
Regarding B2, the binding result in assay [2] was “no binding”; in assay [3] it was “no binding”; in assay [7], “binds”.

B3: FLAG-SMC6 (protein, UniProt Q96SB8 1-1091)
chain: T1 sequence
As to B3, the binding result was “binds” in assay [6] and “no binding” in assay [5].

B4: endogenous SMC6 (protein, UniProt Q96SB8 1-1091)
chain: T1 sequence
For the molecule B4, the binding entry in assay [5] is recorded as “no binding”.

Source of the values: article PMC7599729.
